In PubChem BioAssay AID1346428 (National Center for Advancing Translational Sciences (NCATS), 2018):
Among all 48,000 compounds or so, about 1,200 (2.5%) were called active. Roughly 2% stayed inconclusive and do not appear here.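 The calls were made as follows: active = activation of at least 60% and not above a set upper limit (about 1 call in 100 departs from these limits); inconclusive = activation of 40% to 60%, or above that upper limit; inactive = activation under 40%.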 The list shows a part of the results.

biological target: Probable G-protein coupled receptor 32 (Homo sapiens) (UniProt O75388); assay: qHTS for Agonists of Human Resolvin D1 Receptor DRV1; settings: CHO-K1 GPR32 beta-arrestin PathHunter luminescence, 90 min; at 76.9 µM; active compounds read high; zero percent set by DMSO-only wells; also: 0% is about no effect
Summary of the method: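 CHO-K1 cells stably expressing ProLink-tagged GPR32 and Enzyme Activator-tagged beta-arrestin were seeded at 2,500 cells/well overnight, exposed to compounds for 90 min at 37 °C, then read by beta-Gal complementation chemiluminescence after 1 h detection reagent.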

Sequence of UniProt O75388 (O75388 whole entry, looked up): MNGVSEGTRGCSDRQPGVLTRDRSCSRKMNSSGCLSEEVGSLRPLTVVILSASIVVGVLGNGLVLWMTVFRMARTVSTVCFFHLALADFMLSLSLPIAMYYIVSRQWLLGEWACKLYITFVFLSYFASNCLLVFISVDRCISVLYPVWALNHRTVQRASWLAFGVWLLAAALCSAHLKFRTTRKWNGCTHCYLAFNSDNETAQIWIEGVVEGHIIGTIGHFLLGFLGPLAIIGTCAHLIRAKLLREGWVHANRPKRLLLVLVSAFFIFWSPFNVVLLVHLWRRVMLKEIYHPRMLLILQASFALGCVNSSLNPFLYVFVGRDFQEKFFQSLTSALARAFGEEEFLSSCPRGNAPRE

activation, inactive:
O=C1c2oc3ccccc3c(=O)c2C(c2cccc(Cl)c2)N1c1ccccn1 (centres undefined) -7.36%
c1ccc(OCCn2c(COc3ccccc3)nc3ccccc32)cc1 6.06%
CC1=C(C(=O)Nc2ccc(C)cc2C)C(c2ccccc2F)n2nc(SCC(=O)c3ccc(C)cc3)nc2N1 (centres undefined) -2.3%
O=S(=O)(Nc1ccc(-c2ccc(N3CCCC3)nn2)cc1)c1cc(F)ccc1F 33.5%
CN1CCN(C(CNC(=O)C(=O)Nc2cccc(Cl)c2)c2ccc3c(c2)OCO3)CC1 (centres undefined) -15.2%
O=C(Cn1c(=O)c2cccn2c2cccnc21)NCc1ccccc1F -8.13%
Cc1cc2nc(-c3ccc(OCc4ccccc4)cc3)cc(C(F)(F)F)n2n1 9.83%
CCc1ccc(NC(=O)c2cnc3sc(N4CCCC4)nn3c2=O)cc1 6.92%
COc1ccccc1NC(=O)C1CCC(CNS(=O)(=O)c2ccc3c(c2)CC(C)N3C(C)=O)CC1 (centres undefined) 20.3%
O=C(Nc1ccc(S(=O)(=O)N2CCCCCC2)cc1)c1cc(=O)c2ccccc2o1 -5.47%
Cc1cc(-n2c(C)nc3ccccc3c2=O)ccc1NC(=O)c1ccc([N+](=O)[O-])cc1 23.3%
CC(C)c1ccc(OCc2cc(=O)n3c(-c4ccccc4)csc3n2)cc1 39.1%
CCOC(=O)c1ccc(NC(=O)c2nn(C)c3c2COc2ccccc2-3)cc1 -7.51%
Cc1ccc(S(=O)(=O)c2nnn3c2nc(NCc2ccccc2Cl)c2sccc23)cc1 -20.4%
COc1ccc(NC(=O)CCCN2C(=O)COc3ccc(C)cc32)cc1OC -15.8%
COc1cc(-c2cc(OC)c3c(C)oc(C)c3c(=O)c2)ccc1OC(=O)c1cccc(Cl)c1 -20.5%
CC(C)(C)OC(=O)N1CCC(c2c(C(=O)N3CCN(C(=O)c4ccco4)CC3)cnn2-c2ccccc2Cl)CC1 0.553%
COCCCNC(=O)c1ccc2c(c1)NC(=O)C(C(C)C)N2 (centres undefined) -6.27%
CCOC(=O)c1c(NC(=O)CSc2cn(CCNC(=O)c3ccccc3F)c3ccccc23)sc2c1CCCC2 -2.26%
O=C(Cn1c(=O)n(-c2ccc(Cl)cc2)c(=O)c2c3c(sc21)CCC3)c1ccccc1 20.9%
CCCCN1CCCC[C@H]1C(=O)Nc1c(C)cccc1C 5.77%
CC(C)(C)NC(=O)c1oc2ccccc2c1NC(=O)c1ccc(F)cc1 11.4%
CCc1ccc(S(=O)(=O)c2nnn3c2nc(NCCNC(C)=O)c2cc(Cl)ccc23)cc1 -4.96%
Cc1ccccc1C(=O)c1cccn1CC(=O)NCc1cccc(Cl)c1 -34.3%
COc1ccc(CCN2C(=O)CN(C3CCC(C)CC3)C(=O)C2c2ccc(OC(C)C)c(OC)c2)cc1OC (centres undefined) -12.7%
Cc1ccc(Cn2cc(CCC(=O)NCc3ccc(OC(C)C)cc3)c3ccccc32)cc1 -26.1%
CCCCNC(=O)C(CC)Sc1nc2ccccc2c(=O)n1CCc1ccc(OC)c(OC)c1 (centres undefined) -0.415%
COCCN(CCOC)c1ncnc2c1c(-c1ccccc1)cn2-c1ccc(C)c(Cl)c1 -38%
Cn1c(SCc2ccccc2F)nc2c([nH]c3ccccc32)c1=O 0.0597%
CCc1nn(CCCC(=O)NC(C)c2ccccc2)c(=O)c2cc3occc3n12 (centres undefined) -5.97%
Cc1ccc2c(c1)N(CCCC(=O)NCc1cccc(F)c1)C(=O)CO2 -19.4%
O=C(c1ccccc1)c1ccccc1 -1.35%
COc1ccccc1OCC(=O)Nc1c(C(=O)c2ccc(F)cc2)oc2ccccc12 -8.27%
CSc1ncc(C(=O)N2CCN(c3cccc(C(F)(F)F)c3)CC2)c(C)n1 35.4%
COc1ccc(NC(=O)C(NC(=O)/C=C\c2ccc3c(c2)OCO3)c2ccccc2)cc1 (centres undefined) -17%
Cc1ncc(CO)c(CN)c1O -9.09%
Cc1ccc(NC(=O)C2CCN(S(=O)(=O)c3cc(-c4noc(C)n4)ccc3C)CC2)c(C)c1 -7.5%
COc1ccc(C2CC(=O)c3cc(-c4nc(-c5cccc([N+](=O)[O-])c5)cs4)c(=O)n(-c4ccc(OC)cc4)c3C2)cc1 (centres undefined) 3.57%
COc1ccc(C2N3CC4(C)CN2CC(c2ccccc2)(C3)C4=O)cc1OC (centres undefined) 9.6%
O=C(CSc1c2c(nc3cc(Cl)ccc13)CCCC2)NCc1ccccc1Cl -18.1%
CCCCCCCCCCCCCCCCCCNC(=O)OCC(COP(=O)([O-])OCC[n+]1ccsc1)OC (centres undefined) -4.7%
CCCN(CCC)CCCNC(=O)c1cc2c(=O)[nH]c3ccccc3c2n1C -7.04%
COc1cccc(-n2c(=O)c3sc4ccccc4c3n(CC(=O)Nc3ccccc3C)c2=O)c1 -16.4%
CCc1ccc(Oc2c(C(F)(F)F)oc3c(CN4CCCC(C)C4)c(O)ccc3c2=O)cc1 (centres undefined) -10%
CCc1ccc(NC(=O)c2nn(-c3ccc(OC)cc3)c(=O)c3c2c2ccccc2n3C)cc1 0.198%
COc1ccc(N2CCN(c3csc4ccccc4c3=O)CC2)cc1 -50.2%
CCCCOc1ccc(Cn2c(=O)sc3ccccc32)cc1 -17.3%
Cc1c(C(=O)Nc2ccc(F)cc2F)sc2nc3n(c(=O)c12)N=C(c1ccccc1)CS3 -5.74%
Cn1nccc1C(=O)NCc1ccc2c(c1)CCN2C(=O)c1ccc(Cl)cc1 -4.25%
CC(Sc1oc(-c2cccs2)nc1S(=O)(=O)c1ccccc1)c1ccccc1 (centres undefined) -19.8%
O=C1c2ccccc2-c2onc3c(NCCO)cc(NC4CCCCC4)c1c23 -51.4%
COc1ccc(C(CNC(=O)COc2cc(C)cc(C)c2)N2CCOCC2)cc1 (centres undefined) -9.48%
CCOC(=O)c1ccccc1NC(=O)CCc1nc(-c2ccc(C)cc2)no1 -16.6%
CC(CNC(=O)CCS(=O)(=O)c1cc2c(cc1Cl)NC(=O)CO2)c1ccccc1 (centres undefined) -12%
